Measured values from the supplement of paper PMC10126150.
Values marked as one replicate rest on one cluster of the flow cell; about a third of the high ones do not repeat.
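Further: ATP exposure 15 min at 22 °C before imaging.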

These sequences were tested on ATP (assay: switch fluorescence ratio, 500 uM ATP over buffer (Cy3 cluster intensity, sum of 5 cycles each) (fold (ratio)); higher = stronger signal-on switching upon ATP binding; sequences stand for … in TCGTCGGCAGCGTCAGATGTGTATAAGAGACAGTTTTTTTTTTTTTTTTTTTTTTTTT…TC). Details: aptamer strand: ATP DNA aptamer (quencher-CACCTGGGGGAGTATTGCGGAGGAAGG + anchor), 100 nM annealed; ATP concentration: 500 uM; one replicate.
Procedure, shortened: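 Between each of five buffer/ATP cycles, the flow-cell was stripped with NaOH and re-annealed. Each cycle imaged Cy3-labelled switching-strand clusters, annealed to 100 nM quencher-labelled ATP aptamer on a modified Illumina MiSeq flow-cell, first in selection buffer and then after 15 min with 500 uM ATP at 22 °C. The fluorescence ratio is summed target-cycle over summed buffer-cycle Cy3 intensity per cluster, averaged per switch-domain sequence, with clusters outside 100-1000 RFU excluded.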
AGCCGGGCAT showed a switch fluorescence ratio of 0.966. AGCCGGTGGT gave a switch fluorescence ratio of 1.04. With AGCCTAAGTT the switch fluorescence ratio was 1.03. For AGCCTAGGCC, the switch fluorescence ratio was 1.09. With AGCCTATCGT the switch fluorescence ratio was 0.972. Work on AGCCTGGGAT yielded a switch fluorescence ratio of 0.996. Sequence AGCCTGTCGT has a switch fluorescence ratio of 1.02. Sequence AGCCTTTTAA has a switch fluorescence ratio of 1.01. With AGCGAACATA the switch fluorescence ratio was 0.975. With AGCGAAGGGC the switch fluorescence ratio was 1.02. For AGCGAGGC, the switch fluorescence ratio was 1.29. In the case of AGCGATCTAT, the switch fluorescence ratio is reported as 1.01. In the case of AGCGATTGAA, the switch fluorescence ratio is reported as 1.02. For AGCGATTTAC, the switch fluorescence ratio was 1.46. Work on AGCGCAGTGA yielded a switch fluorescence ratio of 0.999. For AGCGCCCGGG, the switch fluorescence ratio was 1.07. Work on AGCGCGCACG yielded a switch fluorescence ratio of 1.04. In the case of AGCGCGTTCC, the switch fluorescence ratio is reported as 1.14. Sequence AGCGCTAGTT has a switch fluorescence ratio of 1.01. AGCGCTATAG gave a switch fluorescence ratio of 1.09. With AGCGCTTCTG the switch fluorescence ratio was 0.977. Work on AGCGGAACAA yielded a switch fluorescence ratio of 1.06. Sequence AGCGGACATT has a switch fluorescence ratio of 0.993. Sequence AGCGGCATCC has a switch fluorescence ratio of 1.07. In the case of AGCGGGATCA, the switch fluorescence ratio is reported as 1.01. In the case of AGCGGGCTAA, the switch fluorescence ratio is reported as 0.988. With AGCGGGGGAA the switch fluorescence ratio was 1.07. In the case of AGCGGGTGGG, the switch fluorescence ratio is reported as 1.03. With AGCGGTATCC the switch fluorescence ratio was 1.05. In the case of AGCGGTGCGC, the switch fluorescence ratio is reported as 0.985. In the case of AGCGGTGCGG, the switch fluorescence ratio is reported as 1.03. AGCGGTGCGT showed a switch fluorescence ratio of 1.01. AGCGGTGGCT was tested, and the switch fluorescence ratio was 0.97. Work on AGCGGTGGGC yielded a switch fluorescence ratio of 0.995. Sequence AGCGGTGTAG has a switch fluorescence ratio of 1.03. In the case of AGCGTAAT, the switch fluorescence ratio is reported as 1.07. AGCGTAATCT gave a switch fluorescence ratio of 1.05. Work on AGCGTATTGC yielded a switch fluorescence ratio of 0.983. For AGCGTCCTTG, the switch fluorescence ratio was 0.997. Work on AGCGTGTGCC yielded a switch fluorescence ratio of 0.971. Sequence AGCGTTCCGG has a switch fluorescence ratio of 1.02. Work on AGCGTTTCGG yielded a switch fluorescence ratio of 0.985. Work on AGCTAAGGCT yielded a switch fluorescence ratio of 0.995. For AGCTACGGGG, the switch fluorescence ratio was 1.04. Work on AGCTACGTGG yielded a switch fluorescence ratio of 1.06. Sequence AGCTATACCT has a switch fluorescence ratio of 1.53. Work on AGCTATAGGG yielded a switch fluorescence ratio of 1.01. Sequence AGCTATCCAT has a switch fluorescence ratio of 0.995. For AGCTATGTT, the switch fluorescence ratio was 1.03. Sequence AGCTCGAGAC has a switch fluorescence ratio of 1.03. With AGCTCTGCGG the switch fluorescence ratio was 0.955. Work on AGCTCTGTTT yielded a switch fluorescence ratio of 1.01. AGCTGAGGTA was tested, and the switch fluorescence ratio was 0.995. AGCTGAGGTG was tested, and the switch fluorescence ratio was 1.05. In the case of AGCTGCTTTT, the switch fluorescence ratio is reported as 0.981. In the case of AGCTGTCGCG, the switch fluorescence ratio is reported as 0.957. AGCTGTTAC showed a switch fluorescence ratio of 1.81. AGCTGTTTGC was tested, and the switch fluorescence ratio was 1.04. For AGCTTACTTT, the switch fluorescence ratio was 1.06. With AGCTTATTAC the switch fluorescence ratio was 2.24. Work on AGCTTCGGAA yielded a switch fluorescence ratio of 1.41. With AGCTTGATAT the switch fluorescence ratio was 0.94. AGCTTTAGAA showed a switch fluorescence ratio of 0.983. AGGAAAAGGC was tested, and the switch fluorescence ratio was 1.01. AGGAAAGACG gave a switch fluorescence ratio of 1.07. Work on AGGAAAGAGT yielded a switch fluorescence ratio of 1.08. AGGAAAGATG showed a switch fluorescence ratio of 0.951. AGGAAATCTT showed a switch fluorescence ratio of 1.05. AGGAAATGCA gave a switch fluorescence ratio of 0.986. In the case of AGGAACCTCC, the switch fluorescence ratio is reported as 1.73. AGGAAGCATG gave a switch fluorescence ratio of 0.986. Work on AGGAAGGAGC yielded a switch fluorescence ratio of 1.03. Sequence AGGAAGGCGA has a switch fluorescence ratio of 0.973. AGGAAGTCAC showed a switch fluorescence ratio of 1.11. Sequence AGGAATTAAA has a switch fluorescence ratio of 1.05. In the case of AGGACAGC, the switch fluorescence ratio is reported as 0.986. AGGAGAAACT gave a switch fluorescence ratio of 0.945. Sequence AGGAGAATGG has a switch fluorescence ratio of 1.01. AGGAGATTTG was tested, and the switch fluorescence ratio was 0.988. AGGAGGCAAG gave a switch fluorescence ratio of 1. Work on AGGAGGGATC yielded a switch fluorescence ratio of 1.01. AGGATAGCGT was tested, and the switch fluorescence ratio was 0.969. With AGGATGGAAA the switch fluorescence ratio was 1.01. For AGGATGT, the switch fluorescence ratio was 0.97. With AGGATGTGGG the switch fluorescence ratio was 0.986. With AGGATGTGGT the switch fluorescence ratio was 0.96. Work on AGGATTCCTC yielded a switch fluorescence ratio of 1.07. AGGATTCGAG gave a switch fluorescence ratio of 0.984. With AGGATTGACT the switch fluorescence ratio was 1.06. Work on AGGATTGGTC yielded a switch fluorescence ratio of 0.924. Work on AGGATTTAGC yielded a switch fluorescence ratio of 0.972. In the case of AGGCACTAAG, the switch fluorescence ratio is reported as 1.01. AGGCAGGGCG showed a switch fluorescence ratio of 1. For AGGCATAAAT, the switch fluorescence ratio was 1.02. In the case of AGGCATCGTC, the switch fluorescence ratio is reported as 0.997. AGGCATGAAT showed a switch fluorescence ratio of 1.06. Sequence AGGCATGGTT has a switch fluorescence ratio of 1.05. In the case of AGGCCACCT, the switch fluorescence ratio is reported as 1.02. AGGCCATTAG gave a switch fluorescence ratio of 0.984. In the case of AGGCCATTCG, the switch fluorescence ratio is reported as 1.01. AGGCCCTTAG gave a switch fluorescence ratio of 0.996. Work on AGGCCGAGGT yielded a switch fluorescence ratio of 0.97. For AGGCCGGTCG, the switch fluorescence ratio was 1.04. With AGGCCTCGTT the switch fluorescence ratio was 1. AGGCCTGAGA was tested, and the switch fluorescence ratio was 0.973. Sequence AGGCGAGTGT has a switch fluorescence ratio of 0.989. With AGGCGATAT the switch fluorescence ratio was 1.18. For AGGCGATCTC, the switch fluorescence ratio was 1.11. With AGGCGGAGGG the switch fluorescence ratio was 1.02. In the case of AGGCGGTTT, the switch fluorescence ratio is reported as 1.01. In the case of AGGCGTCATG, the switch fluorescence ratio is reported as 1.03. With AGGCGTGCTG the switch fluorescence ratio was 1.16. With AGGCGTTTTC the switch fluorescence ratio was 0.967. AGGCTAAGGA gave a switch fluorescence ratio of 1.05. Sequence AGGCTATAGG has a switch fluorescence ratio of 1.02. In the case of AGGCTCCTAG, the switch fluorescence ratio is reported as 0.974. For AGGCTCGAAC, the switch fluorescence ratio was 0.984. In the case of AGGCTCTATG, the switch fluorescence ratio is reported as 1.01. Work on AGGCTCTTGG yielded a switch fluorescence ratio of 1.01. With AGGCTGGGTA the switch fluorescence ratio was 1. Work on AGGCTGTAAA yielded a switch fluorescence ratio of 1. AGGCTTACAT gave a switch fluorescence ratio of 0.958. In the case of AGGGAACATC, the switch fluorescence ratio is reported as 1.03. AGGGAACCTC gave a switch fluorescence ratio of 0.969. In the case of AGGGAACTGC, the switch fluorescence ratio is reported as 1.03. AGGGAAGCC was tested, and the switch fluorescence ratio was 0.989. Sequence AGGGAAGCCG has a switch fluorescence ratio of 1.16. In the case of AGGGAAGTAA, the switch fluorescence ratio is reported as 1.03. AGGGAATCGA was tested, and the switch fluorescence ratio was 1.02. For AGGGACACAT, the switch fluorescence ratio was 1.16. In the case of AGGGACTTAG, the switch fluorescence ratio is reported as 0.995. Sequence AGGGAGACCT has a switch fluorescence ratio of 1.13. AGGGAGATGA gave a switch fluorescence ratio of 1.01. With AGGGCAAAGC the switch fluorescence ratio was 0.983. Work on AGGGCACTTT yielded a switch fluorescence ratio of 1.06. For AGGGCCCATT, the switch fluorescence ratio was 1.02. With AGGGCCCCAT the switch fluorescence ratio was 0.97. In the case of AGGGCGATGG, the switch fluorescence ratio is reported as 1.05. AGGGCGGCAT gave a switch fluorescence ratio of 0.988. With AGGGCTAGG the switch fluorescence ratio was 1.01. For AGGGGAAAAA, the switch fluorescence ratio was 1.03. AGGGGAAACT gave a switch fluorescence ratio of 0.992. AGGGGAATGA showed a switch fluorescence ratio of 0.957. For AGGGGACCCT, the switch fluorescence ratio was 1.01. Sequence AGGGGAGCAT has a switch fluorescence ratio of 0.953. AGGGGATAA showed a switch fluorescence ratio of 1.01. For AGGGGATGAC, the switch fluorescence ratio was 0.983. With AGGGGATTCC the switch fluorescence ratio was 1.17. AGGGGATTGT showed a switch fluorescence ratio of 1.03. AGGGGCAATG was tested, and the switch fluorescence ratio was 1.17. In the case of AGGGGCCATG, the switch fluorescence ratio is reported as 0.987. AGGGGCCCC gave a switch fluorescence ratio of 1.02. For AGGGGGCTT, the switch fluorescence ratio was 2.06. In the case of AGGGGGTTG, the switch fluorescence ratio is reported as 0.995. With AGGGGTGGAC the switch fluorescence ratio was 1.06. Sequence AGGGGTTGAA has a switch fluorescence ratio of 1.05. Work on AGGGGTTGAT yielded a switch fluorescence ratio of 0.995. For AGGGTAAAAA, the switch fluorescence ratio was 1.07. Sequence AGGGTATCGA has a switch fluorescence ratio of 0.988. For AGGGTATTC, the switch fluorescence ratio was 1.02. Work on AGGGTCCATA yielded a switch fluorescence ratio of 0.979. AGGGTCGAGA gave a switch fluorescence ratio of 0.962. Work on AGGGTGAC yielded a switch fluorescence ratio of 0.986. In the case of AGGGTGAGA, the switch fluorescence ratio is reported as 0.99. AGGGTGTGTG was tested, and the switch fluorescence ratio was 1.02. AGGGTTAAGA was tested, and the switch fluorescence ratio was 0.996. AGGGTTACCA was tested, and the switch fluorescence ratio was 1.07. AGGGTTTGT was tested, and the switch fluorescence ratio was 1.02. AGGTAAGTTG was tested, and the switch fluorescence ratio was 1. With AGGTAATATC the switch fluorescence ratio was 1.09. With AGGTACAACG the switch fluorescence ratio was 1.02. AGGTACGACT showed a switch fluorescence ratio of 1.05. Sequence AGGTACGCAA has a switch fluorescence ratio of 3.84. AGGTACGTAG showed a switch fluorescence ratio of 1.02. For AGGTAGTGAA, the switch fluorescence ratio was 0.975. Work on AGGTAGTTCA yielded a switch fluorescence ratio of 1.03. AGGTATGCTT gave a switch fluorescence ratio of 0.956. For AGGTATGGCA, the switch fluorescence ratio was 1.07. AGGTCAGAA was tested, and the switch fluorescence ratio was 0.988. AGGTCCTCA showed a switch fluorescence ratio of 0.993. AGGTCCTTTG was tested, and the switch fluorescence ratio was 1. AGGTCGGCAG showed a switch fluorescence ratio of 0.996. AGGTCGTTGG showed a switch fluorescence ratio of 0.971. Sequence AGGTCTCGCT has a switch fluorescence ratio of 0.967. Sequence AGGTCTCGGG has a switch fluorescence ratio of 1.03. AGGTGAAATG gave a switch fluorescence ratio of 1.01. Work on AGGTGCAATG yielded a switch fluorescence ratio of 0.987. For AGGTGCATTA, the switch fluorescence ratio was 1.04. AGGTGGCGA gave a switch fluorescence ratio of 1.01. For AGGTGGGGCC, the switch fluorescence ratio was 1.03. In the case of AGGTGGTCTA, the switch fluorescence ratio is reported as 1. AGGTGGTG showed a switch fluorescence ratio of 0.979. AGGTGTAACT showed a switch fluorescence ratio of 1.01. In the case of AGGTGTCTGG, the switch fluorescence ratio is reported as 1.05. Work on AGGTTCCGCT yielded a switch fluorescence ratio of 1.07. AGGTTGGCTG gave a switch fluorescence ratio of 0.968. In the case of AGGTTTACGT, the switch fluorescence ratio is reported as 0.972. AGGTTTACTC gave a switch fluorescence ratio of 0.976. Sequence AGGTTTTACG has a switch fluorescence ratio of 1. For AGTAAAAAGC, the switch fluorescence ratio was 0.944. AGTAAAGAT gave a switch fluorescence ratio of 0.988.
